{
  "source": "a collection of fitness landscapes (doi:10.1016/j.celrep.2020.107928)",
  "parents": {"B1": {"name": "Caulobacter ParB omega fusion; a variant is named by its letters at X, in order, B8GW30 (parent)", "chain": "MESVVVGEPGMSEGRRGLGRGLSALLGEVDAAPAQAPGEQLGGSREAPIEILQRNPDQPRRTFREEDLEDLSNSIREKGVLQPILVRPSPDTAGEYQIVAGERAWRAAQRAGLKTVPIMVRELDDLAVLEIGIIENVQRADLNVLEEALSYKVLMEKFERTQENIAQTIGKSXSHVANXMRLLXLPDEVQSYLVSGELTAXHARAIAAAADPVALAKQIIEGGLSVRETEALARKAPNLSAGKSKGGRPPRVKDTDTQALESDLSSVLGLDVSIDHRGSTGTLTITYATLEQLDDLCNRLTRGI"}},
  "note": "Whole data set: some 81,000 sequences, median “one-hybrid fitness for binding parS DNA” near -0.17, cut for the highest 2% near 0.51. The list shows a part of the results.",
  "data": [
    {"variants_of": "B1", "experiment": "one-hybrid fitness for binding parS DNA (scaled: cognate 1, non-cognate 0); higher = stronger binding", "conditions": "with parS DNA site", "outline": "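Bacterial one-hybrid selection in E. coli USO rpoZ- hisB- pyrF- with a HIS3 reporter carrying the site 19 bp from the promoter, screening Caulobacter ParB libraries with four specificity codons randomised (NNS). Cells grew 48 hours at 37°C on M9-minus-histidine plus 0.1 mM IPTG and 5 mM 3-AT. Plasmids before and after selection were Illumina-sequenced, three replicate libraries pooled, and variants under 10 reads dropped. Fitness is the log change in variant-to-wild-type read ratio, rescaled to cognate 1, non-cognate 0.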", "values": [
      {"variant": "GRLL", "one-hybrid fitness for binding parS DNA": "≤ 0.2"},
      {"variant": "HRIG", "one-hybrid fitness for binding parS DNA": "≤ 0.2"},
      {"variant": "VQCF", "one-hybrid fitness for binding parS DNA": "≤ 0.2"},
      {"variant": "KCGC", "one-hybrid fitness for binding parS DNA": "≤ 0.2"},
      {"variant": "SQSS", "one-hybrid fitness for binding parS DNA": "≤ 0.2"},
      {"variant": "RAHT", "one-hybrid fitness for binding parS DNA": 0.928},
      {"variant": "KMCT", "one-hybrid fitness for binding parS DNA": "≤ 0.2"},
      {"variant": "AFDL", "one-hybrid fitness for binding parS DNA": "≤ 0.2"},
      {"variant": "PHMT", "one-hybrid fitness for binding parS DNA": "≤ 0.2"},
      {"variant": "LYHD", "one-hybrid fitness for binding parS DNA": "≤ 0.2"},
      {"variant": "FPHG", "one-hybrid fitness for binding parS DNA": "≤ 0.2"},
      {"variant": "DLEP", "one-hybrid fitness for binding parS DNA": "≤ 0.2"},
      {"variant": "SSLY", "one-hybrid fitness for binding parS DNA": "≤ 0.2"},
      {"variant": "LDAP", "one-hybrid fitness for binding parS DNA": "≤ 0.2"},
      {"variant": "TRIG", "one-hybrid fitness for binding parS DNA": "≤ 0.2"},
      {"variant": "HYAQ", "one-hybrid fitness for binding parS DNA": "≤ 0.2"},
      {"variant": "VTEW", "one-hybrid fitness for binding parS DNA": "≤ 0.2"},
      {"variant": "GMYT", "one-hybrid fitness for binding parS DNA": "≤ 0.2"},
      {"variant": "HRHR", "one-hybrid fitness for binding parS DNA": "≤ 0.2"},
      {"variant": "TPAM", "one-hybrid fitness for binding parS DNA": "≤ 0.2"},
      {"variant": "LRPM", "one-hybrid fitness for binding parS DNA": "≤ 0.2"},
      {"variant": "QHMI", "one-hybrid fitness for binding parS DNA": "≤ 0.2"},
      {"variant": "HDLT", "one-hybrid fitness for binding parS DNA": "≤ 0.2"},
      {"variant": "NFHS", "one-hybrid fitness for binding parS DNA": "≤ 0.2"},
      {"variant": "QHFY", "one-hybrid fitness for binding parS DNA": "≤ 0.2"},
      {"variant": "LKWY", "one-hybrid fitness for binding parS DNA": "≤ 0.2"},
      {"variant": "TATY", "one-hybrid fitness for binding parS DNA": "≤ 0.2"},
      {"variant": "VTYS", "one-hybrid fitness for binding parS DNA": "≤ 0.2"},
      {"variant": "FRLT", "one-hybrid fitness for binding parS DNA": "≤ 0.2"},
      {"variant": "PNRQ", "one-hybrid fitness for binding parS DNA": "≤ 0.2"},
      {"variant": "RERC", "one-hybrid fitness for binding parS DNA": 0.334},
      {"variant": "HGVC", "one-hybrid fitness for binding parS DNA": "≤ 0.2"},
      {"variant": "RDMK", "one-hybrid fitness for binding parS DNA": "≤ 0.2"},
      {"variant": "RFGV", "one-hybrid fitness for binding parS DNA": "≤ 0.2"},
      {"variant": "CMTI", "one-hybrid fitness for binding parS DNA": "≤ 0.2"},
      {"variant": "LFNF", "one-hybrid fitness for binding parS DNA": "≤ 0.2"},
      {"variant": "NGTF", "one-hybrid fitness for binding parS DNA": "≤ 0.2"},
      {"variant": "GPLF", "one-hybrid fitness for binding parS DNA": "≤ 0.2"},
      {"variant": "PDTC", "one-hybrid fitness for binding parS DNA": "≤ 0.2"},
      {"variant": "RMNL", "one-hybrid fitness for binding parS DNA": "≤ 0.2"},
      {"variant": "EMIC", "one-hybrid fitness for binding parS DNA": "≤ 0.2"},
      {"variant": "YEGP", "one-hybrid fitness for binding parS DNA": "≤ 0.2"},
      {"variant": "RAGF", "one-hybrid fitness for binding parS DNA": 0.247},
      {"variant": "CCMW", "one-hybrid fitness for binding parS DNA": "≤ 0.2"},
      {"variant": "LRVA", "one-hybrid fitness for binding parS DNA": "≤ 0.2"},
      {"variant": "NAAY", "one-hybrid fitness for binding parS DNA": "≤ 0.2"},
      {"variant": "PRDY", "one-hybrid fitness for binding parS DNA": "≤ 0.2"},
      {"variant": "PGKT", "one-hybrid fitness for binding parS DNA": "≤ 0.2"},
      {"variant": "HNLR", "one-hybrid fitness for binding parS DNA": "≤ 0.2"},
      {"variant": "DMMV", "one-hybrid fitness for binding parS DNA": "≤ 0.2"},
      {"variant": "HARL", "one-hybrid fitness for binding parS DNA": "≤ 0.2"},
      {"variant": "NGQF", "one-hybrid fitness for binding parS DNA": "≤ 0.2"},
      {"variant": "QHQL", "one-hybrid fitness for binding parS DNA": "≤ 0.2"},
      {"variant": "ATST", "one-hybrid fitness for binding parS DNA": "≤ 0.2"},
      {"variant": "QEMW", "one-hybrid fitness for binding parS DNA": "≤ 0.2"},
      {"variant": "KVED", "one-hybrid fitness for binding parS DNA": "≤ 0.2"},
      {"variant": "RHGF", "one-hybrid fitness for binding parS DNA": "≤ 0.2"},
      {"variant": "PNKY", "one-hybrid fitness for binding parS DNA": "≤ 0.2"},
      {"variant": "GPPS", "one-hybrid fitness for binding parS DNA": "≤ 0.2"},
      {"variant": "RVDG", "one-hybrid fitness for binding parS DNA": 0.874},
      {"variant": "NKWC", "one-hybrid fitness for binding parS DNA": "≤ 0.2"},
      {"variant": "HLIP", "one-hybrid fitness for binding parS DNA": "≤ 0.2"},
      {"variant": "IKCR", "one-hybrid fitness for binding parS DNA": "≤ 0.2"},
      {"variant": "MVGS", "one-hybrid fitness for binding parS DNA": "≤ 0.2"},
      {"variant": "IPNS", "one-hybrid fitness for binding parS DNA": "≤ 0.2"},
      {"variant": "QWKV", "one-hybrid fitness for binding parS DNA": "≤ 0.2"},
      {"variant": "LCAG", "one-hybrid fitness for binding parS DNA": "≤ 0.2"},
      {"variant": "RFCT", "one-hybrid fitness for binding parS DNA": 0.725},
      {"variant": "YTHR", "one-hybrid fitness for binding parS DNA": "≤ 0.2"},
      {"variant": "TGQD", "one-hybrid fitness for binding parS DNA": "≤ 0.2"},
      {"variant": "IRNL", "one-hybrid fitness for binding parS DNA": "≤ 0.2"},
      {"variant": "FAAC", "one-hybrid fitness for binding parS DNA": "≤ 0.2"},
      {"variant": "PANL", "one-hybrid fitness for binding parS DNA": "≤ 0.2"},
      {"variant": "KYNC", "one-hybrid fitness for binding parS DNA": "≤ 0.2"},
      {"variant": "LEPT", "one-hybrid fitness for binding parS DNA": "≤ 0.2"},
      {"variant": "NTKT", "one-hybrid fitness for binding parS DNA": "≤ 0.2"},
      {"variant": "CYQG", "one-hybrid fitness for binding parS DNA": "≤ 0.2"},
      {"variant": "NKSL", "one-hybrid fitness for binding parS DNA": "≤ 0.2"},
      {"variant": "GARC", "one-hybrid fitness for binding parS DNA": "≤ 0.2"},
      {"variant": "THCA", "one-hybrid fitness for binding parS DNA": "≤ 0.2"},
      {"variant": "QCPR", "one-hybrid fitness for binding parS DNA": "≤ 0.2"},
      {"variant": "FLGC", "one-hybrid fitness for binding parS DNA": "≤ 0.2"},
      {"variant": "CERR", "one-hybrid fitness for binding parS DNA": "≤ 0.2"},
      {"variant": "MCKS", "one-hybrid fitness for binding parS DNA": "≤ 0.2"}
    ]}
  ]
}
